Measured values from the supplement of paper PMC9151546.
Single values are uncertain, as repeats are few or missing.

Experiments:
CHO-K1 [1] = assay: micronucleus frequency (% of nucleated events); higher = more micronuclei (genotoxic)
CHO-K1 [2] = assay: hypodiploid nuclei frequency (% of nucleated events); higher = more hypodiploid events (aneugenic)
Protocol: (§1)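 Flow-cytometric in vitro micronucleus assay (Litron MicroFlow) in CHO-K1 cells in 96-well plates, 19 concentrations (4.5-200 µM, n=1 per concentration). Without S9, cells were exposed for 24 h and sampled at 48 h. With Aroclor 1254-induced rat liver S9, cells were exposed for 3-4 h and sampled at 27-28 h. Read-outs are %MN and %hypodiploid nuclei relative to nucleated events, and relative survival as the nuclei-to-bead ratio versus the 1% DMSO vehicle control (x100).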

CHO-K1 [3] = assay: relative survival (nuclei to bead ratio vs DMSO control) (% of vehicle control); higher = more surviving cells
Protocol: as §1
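Wherever hypodiploid nuclei frequency (% of nucleated events) is given: hypodiploid nuclei gated on a flow cytometer with 488 nm excitation after SYTOX Green staining, cultures at 37 °C, positive controls vinblastine without S9 and cyclophosphamide with S9.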
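Wherever micronucleus frequency (% of nucleated events) is given: cells lysed with nuclei stained by SYTOX Green, then micronucleus-gated events counted against nucleated events by flow cytometry with 488 nm excitation.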
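Wherever relative survival (nuclei to bead ratio vs DMSO control) is given: Lysed-cell nuclei stained with SYTOX Green and counted against counting beads by flow cytometry at 488 nm excitation, with vinblastine (no S9) and cyclophosphamide (plus S9) as positive controls.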

c1ccc2c(c1)-c1cccc3c1c-2cc1ccccc13 [Benzo(b)fluoranthene]
Conditions | hypodiploid nuclei frequency, CHO-K1 [2] [%] | micronucleus frequency, CHO-K1 [1] [%] | relative survival, CHO-K1 [3]
concentration: 4.5 (µM), S9 metabolic activation: with S9, exposure time: 3-4 hours | 0.08 | 1.26 | 74.5
concentration: 4.5 (µM), S9 metabolic activation: without S9, exposure time: 24 hours | 0.64 | 1.82 | 89.8
concentration: 5.63 (µM), S9 metabolic activation: with S9, exposure time: 3-4 hours | 0.2 | 0.86 | 76.1
concentration: 5.63 (µM), S9 metabolic activation: without S9, exposure time: 24 hours | 0.66 | 1.42 | 73.4
concentration: 7.04 (µM), S9 metabolic activation: with S9, exposure time: 3-4 hours | 0.28 | 1.44 | 74
concentration: 7.04 (µM), S9 metabolic activation: without S9, exposure time: 24 hours | 0.42 | 1.9 | 97.2
concentration: 8.8 (µM), S9 metabolic activation: with S9, exposure time: 3-4 hours | 0.24 | 1.38 | 78.6
concentration: 8.8 (µM), S9 metabolic activation: without S9, exposure time: 24 hours | 0.42 | 1.66 | 97.2
concentration: 11 (µM), S9 metabolic activation: with S9, exposure time: 3-4 hours | 0.22 | 1.46 | 84.4
concentration: 11 (µM), S9 metabolic activation: without S9, exposure time: 24 hours | 0.56 | 1.84 | 93.7
concentration: 13.7 (µM), S9 metabolic activation: with S9, exposure time: 3-4 hours | 0.18 | 1.8 | 86.2
concentration: 13.7 (µM), S9 metabolic activation: without S9, exposure time: 24 hours | 0.48 | 1.6 | 85.4
concentration: 17.2 (µM), S9 metabolic activation: with S9, exposure time: 3-4 hours | 0.3 | 2 | 60.4
concentration: 17.2 (µM), S9 metabolic activation: without S9, exposure time: 24 hours | 0.6 | 2.08 | 92.7
concentration: 21.5 (µM), S9 metabolic activation: with S9, exposure time: 3-4 hours | 0.4 | 2.62 | 74.8
concentration: 21.5 (µM), S9 metabolic activation: without S9, exposure time: 24 hours | 0.7 | 2.02 | 95.4
concentration: 26.8 (µM), S9 metabolic activation: with S9, exposure time: 3-4 hours | – | – | 32.6
concentration: 26.8 (µM), S9 metabolic activation: without S9, exposure time: 24 hours | 0.62 | 1.52 | 76.2
concentration: 33.6 (µM), S9 metabolic activation: with S9, exposure time: 3-4 hours | – | – | 27.1
concentration: 33.6 (µM), S9 metabolic activation: without S9, exposure time: 24 hours | 0.62 | 1.18 | 81.7
concentration: 41.9 (µM), S9 metabolic activation: with S9, exposure time: 3-4 hours | – | – | 16.2
concentration: 41.9 (µM), S9 metabolic activation: without S9, exposure time: 24 hours | 0.64 | 1.98 | 93.4
concentration: 52.4 (µM), S9 metabolic activation: with S9, exposure time: 3-4 hours | – | – | 17
concentration: 52.4 (µM), S9 metabolic activation: without S9, exposure time: 24 hours | 0.64 | 2.12 | 77.6
concentration: 65.5 (µM), S9 metabolic activation: with S9, exposure time: 3-4 hours | – | – | 22.2
concentration: 65.5 (µM), S9 metabolic activation: without S9, exposure time: 24 hours | 0.8 | 1.76 | 69.3
concentration: 81.9 (µM), S9 metabolic activation: with S9, exposure time: 3-4 hours | – | – | 12.9
concentration: 81.9 (µM), S9 metabolic activation: without S9, exposure time: 24 hours | 0.6 | 2.48 | 68.8
concentration: 102 (µM), S9 metabolic activation: with S9, exposure time: 3-4 hours | – | – | 19
concentration: 102 (µM), S9 metabolic activation: without S9, exposure time: 24 hours | 0.82 | 1.66 | 83.3
concentration: 128 (µM), S9 metabolic activation: with S9, exposure time: 3-4 hours | – | – | 16.4
concentration: 128 (µM), S9 metabolic activation: without S9, exposure time: 24 hours | 1.18 | 2.12 | 53.4
concentration: 160 (µM), S9 metabolic activation: with S9, exposure time: 3-4 hours | – | – | 22.1
concentration: 160 (µM), S9 metabolic activation: without S9, exposure time: 24 hours | 1.52 | 2.68 | 76.7
concentration: 200 (µM), S9 metabolic activation: with S9, exposure time: 3-4 hours | – | – | 28.9
concentration: 200 (µM), S9 metabolic activation: without S9, exposure time: 24 hours | 1.14 | 2.92 | 85.2

O=C(O)c1ccccc1 [Benzoic acid]
Conditions | hypodiploid nuclei frequency, CHO-K1 [2] [%] | micronucleus frequency, CHO-K1 [1] [%] | relative survival, CHO-K1 [3]
concentration: 4.53 (µM), S9 metabolic activation: with S9, exposure time: 3-4 hours | 0.24 | 1.32 | 90.7
concentration: 4.53 (µM), S9 metabolic activation: without S9, exposure time: 24 hours | 0.54 | 1.32 | 106
concentration: 5.66 (µM), S9 metabolic activation: with S9, exposure time: 3-4 hours | 0.3 | 1.52 | 93.5
concentration: 5.66 (µM), S9 metabolic activation: without S9, exposure time: 24 hours | 0.34 | 1.2 | 108
concentration: 7.07 (µM), S9 metabolic activation: with S9, exposure time: 3-4 hours | 0.08 | 1.34 | 98
concentration: 7.07 (µM), S9 metabolic activation: without S9, exposure time: 24 hours | 0.58 | 1.48 | 119
concentration: 8.84 (µM), S9 metabolic activation: with S9, exposure time: 3-4 hours | 0.32 | 2.24 | 110
concentration: 8.84 (µM), S9 metabolic activation: without S9, exposure time: 24 hours | 0.58 | 1.44 | 140
concentration: 11.1 (µM), S9 metabolic activation: with S9, exposure time: 3-4 hours | 0.34 | 1.76 | 95.2
concentration: 11.1 (µM), S9 metabolic activation: without S9, exposure time: 24 hours | 0.58 | 1.18 | 117
concentration: 13.8 (µM), S9 metabolic activation: with S9, exposure time: 3-4 hours | 0.38 | 1.68 | 127
concentration: 13.8 (µM), S9 metabolic activation: without S9, exposure time: 24 hours | 0.52 | 1.34 | 116
concentration: 17.3 (µM), S9 metabolic activation: with S9, exposure time: 3-4 hours | 0.6 | 2.32 | 118
concentration: 17.3 (µM), S9 metabolic activation: without S9, exposure time: 24 hours | 0.36 | 1.5 | 132
concentration: 21.6 (µM), S9 metabolic activation: with S9, exposure time: 3-4 hours | 0.32 | 1.48 | 110
concentration: 21.6 (µM), S9 metabolic activation: without S9, exposure time: 24 hours | 0.48 | 1.52 | 116
concentration: 27 (µM), S9 metabolic activation: with S9, exposure time: 3-4 hours | 0.26 | 0.94 | 88.5
concentration: 27 (µM), S9 metabolic activation: without S9, exposure time: 24 hours | 0.64 | 1.82 | 97
concentration: 33.7 (µM), S9 metabolic activation: with S9, exposure time: 3-4 hours | 0.26 | 1.36 | 89.8
concentration: 33.7 (µM), S9 metabolic activation: without S9, exposure time: 24 hours | 0.52 | 1.4 | 104
concentration: 42.2 (µM), S9 metabolic activation: with S9, exposure time: 3-4 hours | 0.22 | 1.88 | 76.2
concentration: 42.2 (µM), S9 metabolic activation: without S9, exposure time: 24 hours | 0.62 | 1.12 | 104
concentration: 52.7 (µM), S9 metabolic activation: with S9, exposure time: 3-4 hours | 0.28 | 1.46 | 93
concentration: 52.7 (µM), S9 metabolic activation: without S9, exposure time: 24 hours | 0.52 | 1.34 | 111
concentration: 65.9 (µM), S9 metabolic activation: with S9, exposure time: 3-4 hours | 0.22 | 1.3 | 96.7
concentration: 65.9 (µM), S9 metabolic activation: without S9, exposure time: 24 hours | 0.7 | 1.38 | 104
concentration: 82.3 (µM), S9 metabolic activation: with S9, exposure time: 3-4 hours | 0.22 | 2.14 | 99.6
concentration: 82.3 (µM), S9 metabolic activation: without S9, exposure time: 24 hours | 0.5 | 1.66 | 104
concentration: 103 (µM), S9 metabolic activation: with S9, exposure time: 3-4 hours | 0.32 | 1.64 | 109
concentration: 103 (µM), S9 metabolic activation: without S9, exposure time: 24 hours | 0.82 | 1.7 | 101
concentration: 129 (µM), S9 metabolic activation: with S9, exposure time: 3-4 hours | 0.34 | 1.86 | 107
concentration: 129 (µM), S9 metabolic activation: without S9, exposure time: 24 hours | 1 | 1.9 | 98.4
concentration: 161 (µM), S9 metabolic activation: with S9, exposure time: 3-4 hours | 0.4 | 1.36 | 119
concentration: 161 (µM), S9 metabolic activation: without S9, exposure time: 24 hours | 1.16 | 1.64 | 86.3
concentration: 201 (µM), S9 metabolic activation: with S9, exposure time: 3-4 hours | 0.3 | 1.18 | 111
concentration: 201 (µM), S9 metabolic activation: without S9, exposure time: 24 hours | 1.06 | 2.02 | 90.7
